From the supplement of paper PMC11741623
The other results are listed elsewhere or left out. Interaction screen of human proteins with wild-type SARS-CoV-2 proteins by split-DHFR complementation in yeast, 1 µg/mL methotrexate. Value = fitness of the pair (three or more lineages) minus that of the viral protein without a human partner, on a scale set by negative (0) and fused positive (1) controls, mean of up to three cultures; higher = more likely to interact. Active = false discovery rate below 0.05 (one-sided t-test) in at least one culture. Nearly all pairs are not hits, and differences among them are mostly noise (correlation between cultures about 0.3); most hits were seen in one culture only. Human sequences are the Swiss-Prot entries looked up by gene name; the clone may be another isoform. NSP2 values were corrected by the authors for a growth advantage. Listed are human proteins with a hit and a random twelfth of the others.

Legend:
Test in all cases: yeast fitness gain over the viral ORF with no human partner (scaled fitness); higher = more likely to interact
[1] = test system: SARS-CoV-2 E
Protocol: (§1)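 Split mouse DHFR complementation in pooled diploid yeast: human ORFeome clones carry one fragment and viral ORFs the other; barcoded lineages compete in 1 µg/mL methotrexate and fitness is read by barcode sequencing in up to three cultures.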

[2] = test system: SARS-CoV-2 M
Protocol: as §1

[3] = test system: SARS-CoV-2 NSP10
Protocol: as §1

[4] = test system: SARS-CoV-2 NSP13
Protocol: as §1

[5] = test system: SARS-CoV-2 NSP14
Protocol: as §1

[6] = test system: SARS-CoV-2 NSP15
Protocol: as §1

[7] = test system: SARS-CoV-2 NSP16
Protocol: as §1

[8] = test system: SARS-CoV-2 NSP1
Protocol: as §1

[9] = test system: SARS-CoV-2 NSP2
Protocol: as §1

[10] = test system: SARS-CoV-2 NSP4
Protocol: as §1

[11] = test system: SARS-CoV-2 NSP5
Protocol: as §1

[12] = test system: SARS-CoV-2 NSP6
Protocol: as §1

[13] = test system: SARS-CoV-2 NSP7
Protocol: as §1

[14] = test system: SARS-CoV-2 NSP8
Protocol: as §1

[15] = test system: SARS-CoV-2 NSP9
Protocol: as §1

[16] = test system: SARS-CoV-2 N
Protocol: as §1

[17] = test system: SARS-CoV-2 ORF10
Protocol: as §1

[18] = test system: SARS-CoV-2 ORF3A
Protocol: as §1

[19] = test system: SARS-CoV-2 ORF3B
Protocol: as §1

[20] = test system: SARS-CoV-2 ORF6
Protocol: as §1

[21] = test system: SARS-CoV-2 ORF7A
Protocol: as §1

[22] = test system: SARS-CoV-2 ORF7B
Protocol: as §1

[23] = test system: SARS-CoV-2 ORF8
Protocol: as §1

[24] = test system: SARS-CoV-2 S
Protocol: as §1

Measured: yeast fitness gain

ZNF517, Q6ZMY9
inactive: [1] -0.0201 | [2] 0.0289 | [3] 0.0173 | [4] -0.00375 | [5] -0.0625 | [6] 0.0301 | [7] 0.0213 | [8] 0.0454 | [9] -0.101 | [10] 0.0226 | [11] -0.0108 | [12] 0.0514 | [13] 0.0609 | [14] -0.00411 | [15] 0.063 | [16] -0.0129 | [17] -0.0155 | [18] -0.0612 | [19] -0.0576 | [20] 0.0343 | [21] 0.0124 | [22] -0.0184 | [23] 0.0128 | [24] -0.0238

RGS3, P49796
inactive: [1] -0.014 | [2] -0.0573 | [3] 0.0395 | [4] -0.0131 | [5] 0.0335 | [6] -0.107 | [7] -0.0688 | [8] -0.0285 | [9] -0.0569 | [10] -0.357 | [11] -0.0843 | [12] 0.00972 | [13] -0.0403 | [14] -0.0457 | [15] -0.0403 | [17] 0.0746 | [18] -0.0115 | [19] -0.052 | [20] -0.013 | [21] -0.0992 | [22] -0.0281 | [23] 0.0347 | [24] 0.0717

FAM19A3, Q7Z5A8
inactive: [2] -0.044 | [3] -0.0434 | [4] 0.0145 | [5] -0.0743 | [8] 0.063 | [9] -0.209 | [10] -0.0198 | [11] 0.162 | [12] -0.0179 | [14] 0.0708 | [15] -0.0225 | [17] -0.0268 | [19] -0.187 | [20] -0.00375 | [21] -0.0379 | [22] 0.0586 | [23] -0.0134 | [24] -0.00362

MT2A, P02795
inactive: [2] -0.161 | [3] -0.0802 | [4] -0.0301 | [6] 0.0534 | [7] 0.103 | [8] 0.0131 | [9] -0.139 | [11] 0.0182 | [12] 0.0058 | [13] -0.0343 | [14] 0.102 | [15] 0.067 | [16] -0.204 | [17] -0.0147 | [18] 0.0307 | [19] -0.0201 | [20] -0.0209 | [21] -0.0741 | [22] -0.203 | [23] -0.136 | [24] -0.0198

POLD2, P49005
inactive: [1] -0.149 | [2] -0.00285 | [3] 0.0271 | [4] 0.00545 | [5] -0.153 | [6] -0.0185 | [7] 0.0075 | [8] -0.0413 | [9] -0.207 | [10] 0.0172 | [11] -0.00261 | [12] 0.0341 | [13] -0.0276 | [14] 0.0192 | [15] 0.0172 | [16] -0.03 | [17] 0.0399 | [18] -0.0277 | [19] -0.000908 | [20] 0.0403 | [21] 0.0322 | [22] 0.0125 | [23] 0.049 | [24] -0.0803

TLX3, O43711
inactive: [2] 0.0149 | [3] 0.0299 | [4] 0.0303 | [6] 0.0667 | [7] 0.0237 | [8] -0.0822 | [9] -0.0779 | [11] -0.0841 | [12] -0.052 | [13] 0.00573 | [14] -0.06 | [15] 0.071 | [16] -0.137 | [17] 0.041 | [19] 0.0169 | [20] -0.0261 | [21] 0.0577 | [22] -0.0209 | [23] -0.0596 | [24] 0.0596

MAGEA10, P43363
inactive: [1] -0.00264 | [2] 0.101 | [3] 0.0595 | [4] 0.0776 | [7] 0.0125 | [8] 0.0876 | [9] -0.0195 | [11] 0.0184 | [12] -0.0302 | [13] 0.0678 | [14] -0.0188 | [15] 0.0467 | [16] -0.00522 | [17] -0.0211 | [19] -0.0306 | [20] -0.00523 | [21] 0.0851 | [22] -0.0187 | [23] 0.00384 | [24] -0.0294

HAUS7, Q99871
inactive: [2] -0.0115 | [3] 0.0101 | [4] 0.0994 | [6] 0.0407 | [8] -0.0212 | [9] -0.263 | [11] -0.0658 | [12] -0.067 | [13] 0.000141 | [14] -0.0852 | [15] -0.169 | [16] -0.166 | [17] -0.0107 | [18] 0.0454 | [19] 0.0928 | [20] -0.0855 | [22] -0.0207 | [23] 0.0236 | [24] 0.0544

PTCD1, O75127
inactive: [2] -0.0506 | [3] 0.0572 | [4] -0.0167 | [19] -0.0562 | [20] -0.353 | [23] 0.0924
